Laboratory results: PubChem BioAssay AID445 (National Center for Advancing Translational Sciences (NCATS), 2006)
Out of some 110,000 compounds screened, about 40 (0.04%) were called active. Inconclusive means that the source gave no clear call. Such entries were picked first, then a sample of the others. Calls follow the shape of the dose curve; as a rule, active = well fitted curve in the direction sought with a large enough effect in the signal ratio (not every such curve was filed as active); inconclusive = small, poorly fitted or top-dose-only effect, or a change in a side signal; inactive = flat fitted curve, though single readings scatter; the % refers to the signal ratio. Where the call is inconclusive, the potency comes from a doubtful curve fit.

Assay: IkB Signaling;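 as to IkBa stabilization activation: 0% = basal untreated cells and 100% = reference inhibitor full response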
Conditions: ABC-DLBCL IkBa-CBG/CBR dual luciferase ratio (green luciferase fused to IkBa over red control in OCI-Ly3 lymphoma cells), 4 h; IkBa stabilization activation: at 57.1 µM (top of the series), scaled: untreated 0%, proteasome inhibitor 100% unless noted
In short: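 Curves were fitted separately to fusion (green), unfused (red) and ratio luminescence, then classed by r2, magnitude and activity. Cells: OCI-Ly3, 4 h compound plus doxycycline at 37C; 10 uM MG-132 defined full response.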
Potency is read from the fitted curve at half-maximal effect.

SMILES	IkBa stabilization activation	Potency
O=C(COC(=O)c1ccc(Oc2ccccc2)cc1)Nc1nnc(-c2ccccc2)o1	inconclusive: 8.2% [signal inhibitor]	–
O=C(O)CCSc1nc2ccccc2s1	inactive: 2.54%	–
COc1ccc(OC)c(/C=C(\C#N)c2nc3ccccc3c(=O)[nH]2)c1	–	inconclusive: 0.0631 µM [signal inhibitor, full curve]
O=C(CCC(=O)c1ccccc1)Nc1ccc(F)c(Cl)c1	inconclusive: 2.68% [signal inhibitor]	–
Cc1ccc(C)c(S(=O)(=O)NCCc2csc(-c3ccc(Cl)cc3)n2)c1	inconclusive: 2.8% [signal inhibitor]	–
Cc1cccc(NC(=O)C2CCCN(S(=O)(=O)c3ccc4c(c3)oc(=O)n4C)C2)c1 (stereo unspecified)	inconclusive: 1.84% [signal inhibitor]	–
O=S(=O)(NCCS(=O)(=O)N1CCN(c2ccccc2)CC1)c1ccc(Cl)cc1	inconclusive: -1.1% [signal inhibitor]	–
COc1ccccc1CNC(=O)c1ccoc1C	inconclusive: 2.35% [signal inhibitor]	–
Cn1c(SCC(=O)Nc2ccccc2)nc(O)cc1=O	inconclusive: 14.8% [signal inhibitor]	–
CC(C)CN1CC[C@@]2(CCCN(C(=O)c3cc(C(F)(F)F)cc(C(F)(F)F)c3)C2)C1	inactive: 6.03% [at 11.4 µM, scaled: untreated 0%, proteasome inhibitor 100%]	–
CCOC(=O)c1ccc2c(c1)[C@@H]1C=CC[C@@H]1[C@H](c1cccc(OC)c1OC)N2	inconclusive: 10.5% [signal inhibitor]	–
O=C(Nc1ccc2c(c1)OCO2)c1cccc2c1C(=O)N(C1CCCCC1)C2	inactive: -1.57%	–
COC(=O)c1sc2cccc(F)c2c1S(=O)(=O)NCc1ccc(Cl)cc1	inconclusive: 1.21% [signal inhibitor]	–
COc1ccccc1-c1nnc2sc(COc3ccc(Cl)cc3Cl)nn12	inconclusive: 11.4% [signal inhibitor]	–
Cc1ccc(CSc2ncc(Cl)c(C(=O)Oc3ccc(F)cc3)n2)cc1	inconclusive: -0.293% [signal inhibitor]	–
COc1ccccc1N1CCN(CCCNC(=O)c2cnn(-c3ccc(C)c(C)c3)c2C2CCN(C(=O)OC(C)(C)C)CC2)CC1	inconclusive: 1.6% [signal inhibitor]	–
CC(C)=CC(=O)Nc1ccccc1C(N)=O	inactive: -0.226%	–
CCCCS(=O)(=O)c1oc(-c2ccc(F)cc2)nc1S(=O)(=O)c1ccccc1	inconclusive: -4.1% [signal inhibitor]	–
Fc1ccc(-c2cc(C(F)(F)F)nc(NCc3ccccc3)n2)cc1	inactive: 1.88%	–
COc1cc(OC)c2cc(-c3ccncc3)cnc2c1	inactive: 1.06%	–
O=C(c1ccc2c(c1)N(Cc1ccc(F)cc1)C(=O)c1ccccc1S2(=O)=O)N1CCN(c2ccccn2)CC1	inconclusive: -0.582% [signal inhibitor]	–
COc1ccccc1CNC(=O)c1cnc2c(-c3ccccc3)c(C)nn2c1C	inconclusive: 2.41% [signal inhibitor]	–
Cc1ccc(-c2nnc(N(C)C(=O)c3cccnc3)s2)cn1	inactive: 0.6%	–
O=C(CSc1n[nH]c(-c2ccc(S(=O)(=O)N3CCCCC3)cc2)n1)Nc1nccs1	inconclusive: 5.63% [signal inhibitor]	–

SMILES	IkBa stabilization activation	Potency
COc1ccc(-c2ccc(NS(=O)(=O)c3ccccc3Cl)cc2)nn1	inconclusive: -0.827% [signal inhibitor]	–
Cc1ccc2c(c1)CCCN2C(=O)c1c(C)noc1C	–	inconclusive: 15.8 µM [signal inhibitor, partial curve]
O=C1c2ccccc2C(=O)N1CCCCCc1nc(-c2ccccc2)no1	inconclusive: -2.34% [signal inhibitor]	–
CCOc1ccc(C(c2c(C)[nH]n(-c3ccccc3)c2=O)c2c(C)[nH]n(-c3ccccc3)c2=O)cc1OC	–	inconclusive: 25.1 µM [signal activator, single point]
CCN(CC)CCNC(=O)c1ccc2c(=O)n3nc(Nc4cccc(Cl)c4C)sc3nc2c1	inactive: -2.84%	–
COc1ccc(-c2nsc(NC(=O)c3cccc(OC)c3)n2)cc1	inconclusive: 4.36% [signal inhibitor]	–
CCc1ccc(-c2cn3c(n2)sc2cc(C(=O)NCCCc4ccccc4)ccc23)cc1	inconclusive: 1.44% [signal inhibitor]	–
O=C(Nc1cccc(-c2nc3cc(Cl)ccc3o2)c1)c1ccc(F)cc1	inconclusive: 3.28% [signal inhibitor]	–
O=C(Cn1c(=O)n(Cc2ccc(F)cc2)c(=O)c2sc3ccccc3c21)NCc1ccccc1	inactive: -0.507%	–
Cc1ccc(C)c(Cn2c(C(C)NC(=O)c3ccccc3)nc3ccccc32)c1 (stereo unspecified)	inconclusive: 0.693% [signal inhibitor]	–
c1coc(Cn2c(SCc3nc4ccccc4[nH]3)nnc2-c2cccs2)c1	inactive: 1.3%	–
COc1cccc(OCc2nc3ccccc3n2C)c1	inactive: 0.479%	–
O=C(CCn1cnc2onc(-c3ccc(F)cc3)c2c1=O)N1CCN(c2ccccc2)CC1	inconclusive: 1.61% [signal inhibitor]	–
O=C(NC1CCCC1)C(c1cccs1)N(CC1CCCO1)C(=O)Cc1cccs1 (stereo unspecified)	inactive: 2.25%	–
CCN(Cc1ccccc1)Cc1c(O)ccc2c(=O)c(-c3ccccc3Cl)coc12	inactive: 3.08%	–
O=C(NCc1ccccc1)c1ccc(Cn2c(=O)c3cccn3c3cccnc32)cc1	inactive: -0.193%	–
COc1ccc(-c2noc(CCN3C(=O)c4ccccc4C3=O)n2)cc1OC	inactive: 0.227%	–
CCCC(c1nnnn1Cc1cccs1)N1CCN(C2CCCC2)CC1 (stereo unspecified)	inactive: -0.175%	–
CN(Cc1ccccc1)S(=O)(=O)c1ccc(F)c(C(=O)Nc2cc(Cl)cc(Cl)c2)c1	inconclusive: 2.47% [signal inhibitor]	–
O=C(Nc1cc(-c2nc3cc(Cl)ccc3o2)ccc1Cl)c1cc2ccccc2o1	–	inconclusive: 25.1 µM [signal inhibitor]
CC(C)n1cc(/C=C(\C#N)S(=O)(=O)c2ccccc2)c2ccccc21	inactive: 4.17%	–
CCc1nn2c(=O)cc(COC(=O)c3cccs3)nc2s1	–	inconclusive: 12.6 µM [signal inhibitor, partial curve]
O=C(Nc1ccc2nn(-c3ccccc3)nc2c1)c1ccc2c(c1)OCCO2	inconclusive: 2.9% [signal inhibitor]	–
Cc1cc(C)n2nc(SCN3C(=O)c4ccccc4C3=O)nc2n1	inactive: 0.574%	–

SMILES	IkBa stabilization activation	Potency
CC(Oc1ccccc1)C(=O)Nc1ccc(C(=O)OCc2cc(=O)n3ccsc3n2)cc1 (stereo unspecified)	inconclusive: 3.32% [signal inhibitor]	–
CN(C)c1ncnc2ccc(-c3ccoc3)cc12	inactive: -2.96% [at 11.4 µM, scaled: untreated 0%, proteasome inhibitor 100%]	–
Cc1cccc(Nc2cc(C)nc3nc(Cc4ccc(Cl)cc4)nn23)c1	inconclusive: 1.45% [signal inhibitor]	–
COc1ccc(CNC(=O)c2ccc3c(Cl)c4c(nc3c2)CCCC4)c(OC)c1	inconclusive: 5.2% [signal inhibitor]	–
Cc1nc(SCC(=O)Nc2ccc(Cl)cc2C(F)(F)F)[nH]c(=O)c1Cc1ccccc1	–	inconclusive: 25.1 µM [signal inhibitor]
O=S(=O)(Nc1ccc(-c2ccc(N3CCCC3)nn2)cc1)c1ccccc1Cl	inconclusive: 1.21% [signal inhibitor]	–
Cn1cccc1C(=O)N1CCC[C@@]2(CCN(Cc3ccccc3)C2)C1	inactive: 0.668% [at 11.4 µM, scaled: untreated 0%, proteasome inhibitor 100%]	–
Cc1ccc(N2CCN(c3nc4ccccc4n4nnnc34)CC2)c(C)c1	–	inconclusive: 10 µM [signal inhibitor, partial curve]
Cc1ccc(Cl)cc1N1CCN(C(=O)c2cnn(-c3ccc(Cl)cc3)c2C2CCNCC2)CC1	inconclusive: -1.91% [signal inhibitor]	–
Nc1nc(SC/C=C\c2ccccc2)c2[nH]cnc2n1	inactive: -0.841% [at 11.4 µM, scaled: untreated 0%, proteasome inhibitor 100%]	–
COc1cc(C(=O)Nc2nncs2)cc(OC)c1OC	inactive: 7.73%	–
CC(=O)OC(C(=O)c1ccccc1)c1ccccc1 (stereo unspecified)	inactive: -1.58%	–
COc1cccc(C2=NOC(C(=O)Nc3cc(OC)c(OC)c(OC)c3)C2)c1 (stereo unspecified)	inconclusive: 2.23% [signal inhibitor]	–
O=[N+]([O-])c1cccc(/C=N\NC2=CS(=O)(=O)C=C2)c1	inactive: -0.626% [at 11.4 µM, scaled: untreated 0%, proteasome inhibitor 100%]	–
Cc1ccc(CCNC(=O)c2ccc(Cn3c(=O)c4cccn4c4cccnc43)cc2)cc1	inconclusive: 8.86% [signal inhibitor]	–
O=C(COc1cccc(Cl)c1)N1CCC(c2nc3ccccc3s2)CC1	inconclusive: 0.493% [signal inhibitor]	–
CCc1ccc(OCC(=O)Nc2ccc(Cl)c(-c3nc4cc(C)cc(C)c4o3)c2)cc1	inactive: -1.44%	–
c1ccc2c(c1)CCC[C@H]2C1=NCCN1	inactive: -1.12%	–
Cc1ccc(Cl)cc1N1CCN(S(=O)(=O)c2ccc3oc(=O)c4ncn(C)c4c3c2)CC1	inactive: -0.202%	–
CC1CCCN(C(=O)c2cc3c(-c4ccc(Cl)cc4)nn(C)c3s2)C1 (stereo unspecified)	inactive: 1.39%	–
Cc1nc2ncnn2c(N2CCN(C(c3ccccc3)c3ccccc3)CC2)c1C	inconclusive: -8.6% [signal inhibitor]	–
Cc1cccc(NC(=O)CN2C(=O)COc3ccc(S(=O)(=O)Nc4ccccc4)cc32)c1C	inactive: 0.265%	–
Cc1ccc(S(=O)(=O)c2nnn3c2nc(NCc2ccc(F)cc2)c2sccc23)cc1C	inconclusive: 1.57% [signal inhibitor]	–
